Experimental data taken from PubChem BioAssay AID1468 (National Center for Advancing Translational Sciences (NCATS), 2008).
The whole screen tested about 280,000 compounds, of which about 1,100 (0.39%) were called active. Inconclusive means that the source gave no clear call. Such entries were picked first, then a sample of the others. The call rests on the fitted dose curve; in most records, active means well fitted inhibition curve with a large enough effect; inconclusive means small, poorly fitted or top-dose-only effect, or effect the other way; inactive means flat fitted curve, though single readings scatter. No potency is given beside an inconclusive call; the fits are too rough.

Target: Microtubule-associated protein tau (Homo sapiens) (UniProt P10636)
Experiment: qHTS for Inhibitors of Tau Fibril Formation, Fluorescence Polarization; further: nearly all actives have a fitted effect of over 55% in size
Conditions: K18 P301L tau heparin fibrillization, Alexa594 FP, 6 h; series mostly up to 57.7 µM; activity, negative = inhibition: at the top concentration
Summary of the method: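 Compound effects on tau fibrillization are measured by Alexa 594 fluorescence polarization (ex 555, em 632 nm). K18 P301L tau is used at 15 uM with 0.24 uM labeled tracer, and 20 uM heparin induces aggregation over 6 hr at 37 C.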
On the % scale 0 is the no-effect control and ±100 the full control effect; potency means the concentration at half of the fitted maximal effect; tags describe the fitted curve by direction and shape.

Chain of UniProt P10636 (P10636 whole entry, looked up): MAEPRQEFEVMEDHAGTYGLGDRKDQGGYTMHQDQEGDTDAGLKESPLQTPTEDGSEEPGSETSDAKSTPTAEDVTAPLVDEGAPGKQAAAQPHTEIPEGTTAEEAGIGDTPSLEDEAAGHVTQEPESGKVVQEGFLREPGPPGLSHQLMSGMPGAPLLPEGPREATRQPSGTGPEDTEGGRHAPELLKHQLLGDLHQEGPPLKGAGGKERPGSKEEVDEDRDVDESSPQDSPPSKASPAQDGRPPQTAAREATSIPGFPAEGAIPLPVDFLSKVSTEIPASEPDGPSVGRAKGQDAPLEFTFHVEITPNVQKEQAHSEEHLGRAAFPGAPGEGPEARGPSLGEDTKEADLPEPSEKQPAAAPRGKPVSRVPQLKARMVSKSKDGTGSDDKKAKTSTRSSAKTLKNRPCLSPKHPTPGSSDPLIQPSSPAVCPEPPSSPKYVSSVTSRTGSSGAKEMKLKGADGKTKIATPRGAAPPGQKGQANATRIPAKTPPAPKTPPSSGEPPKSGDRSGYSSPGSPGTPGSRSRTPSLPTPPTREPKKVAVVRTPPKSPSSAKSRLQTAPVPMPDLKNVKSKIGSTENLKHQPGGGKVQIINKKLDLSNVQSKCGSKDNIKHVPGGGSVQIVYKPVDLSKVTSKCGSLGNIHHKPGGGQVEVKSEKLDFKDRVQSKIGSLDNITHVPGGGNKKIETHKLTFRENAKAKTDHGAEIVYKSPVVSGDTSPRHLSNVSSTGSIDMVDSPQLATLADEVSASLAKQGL

SMILES | Potency | activity, negative = inhibition
O=C1C(c2ccccn2)=[N+]([O-])c2ccccc21 | active: 7.94 µM | 
CC(C)Sc1nc2sc3c(c2c(=O)n1Cc1ccccc1)CCCC3 |  | inactive: 2.33%
COC(=O)c1cc2oc3ccccc3c2n1Cc1nc(-c2ccccc2Cl)oc1C | inconclusive [inhibitor, single point] | 
Cc1ccc2c(=O)cc(C(=O)Nc3sc4c(c3C(=O)NCc3ccco3)CCC4)oc2c1 | inconclusive [activator, single point] | 
CC(NC(=S)Nc1ccc(S(=O)(=O)N2CCOCC2)cc1)C1CC2CCC1C2 (configuration not stated) | inconclusive [inhibitor, partial curve] | 
O=C(N/N=C/c1ccc(N2CCOCC2)cc1)c1ccccc1OCCOc1ccccc1 |  | inactive: -8.5%
CSc1nsc(SCC(=O)N2CCc3ccccc32)n1 |  | inactive: -7.42%
Cc1ccc(S(=O)(=O)Nc2nc(C)c(NC(=O)OCCCl)s2)cc1 |  | inactive: 5.75%
CCC(C)NC(=O)CSc1nc2cc3c(cc2c(=O)n1CCCC(=O)NCCc1ccc(OC)c(OC)c1)OCO3 (configuration not stated) |  | inactive: -0.533%
C#CCn1c(=NC(=O)c2cc(-c3cccs3)nc3ccccc23)sc2cc(S(N)(=O)=O)ccc21 | inconclusive [inhibitor, single point] | 
CC1CC1C(=O)OCC(=O)Nc1ccc(N=Nc2ccccc2)cc1 (configuration not stated) | inconclusive [inhibitor, single point] | 
CCOC(=O)c1ccc(N2C(=O)c3[nH]nc(-c4ccc(C)cc4)c3C2c2ccc(O)c(OCC)c2)cc1 (configuration not stated) | inconclusive [inhibitor, partial curve] | 
Cn1c(C(C#N)C2=C(Cl)C(=O)N(c3ccccc3)C2=O)nc2ccccc21 (configuration not stated) | inconclusive [inhibitor, single point] | 
CCCn1c(=O)c2sccc2n2c(CCCC(=O)N3CCN(c4ccccc4OC)CC3)nnc12 |  | inactive: 2.94%
Cc1ccccc1OCCCCn1c(-c2ccc(Cl)cc2)nc2ccccc2c1=O | inconclusive [inhibitor, partial curve, poor fit] | 
C=CCOC(=O)c1[nH]c2c(c1C)C(=O)CC(c1cc(OC)c(OC)c(OC)c1)C2 (configuration not stated) |  | inactive: 2%
C=CCSC1=Nc2sccc2C2=NC(=O)CN12 |  | inactive: 2.84%
COc1ccc2c(c1)c(=O)c(C(=O)c1ccc(C)c(C)c1)cn2CC(=O)Nc1ccc2c(c1)OCCO2 | inconclusive [inhibitor, single point] | 
CN1C(=O)/C(=C/c2cn(CC(=O)NCc3ccco3)c3ccccc23)NC1=S | inconclusive [inhibitor, partial curve, poor fit] | 
COC(=O)C(NS(C)(=O)=O)(c1c(C)[nH]c2ccccc12)C(F)(F)F (configuration not stated) |  | inactive: 4.03%
COC(=O)c1ccc(NC(=O)CC2C(=O)N(c3cccc(OC)c3)C(=O)N2Cc2ccco2)cc1 (configuration not stated) |  | inactive: 0.173%
O=S(=O)(/N=C/c1c(O)ccc2ccccc12)c1cccs1 | inconclusive [inhibitor, single point] | 
COc1ccc(NC(=O)c2cccc(N3CCCS3(=O)=O)c2)cc1OC |  | inactive: 2.16%
CCCCNS(=O)(=O)c1ccc2nc(SCC(=O)Nc3ccccc3)[nH]c2c1 | inconclusive [inhibitor, full curve] | 

SMILES | Potency | activity, negative = inhibition
COc1cccc(CSc2nc3n(n2)C(c2cccs2)C(C(=O)Nc2ccccc2C)=C(C)N3)c1 (configuration not stated) |  | inactive: 2.32%
CCOC(=O)c1c(N)n(-c2ccc(Cl)c(Cl)c2)c2nc3ccccc3nc12 |  | inactive: 0.588%
O=C(COC(=O)Cc1c(Cl)cccc1Cl)Nc1ccc(OC(F)(F)F)cc1 | inconclusive [inhibitor, single point] | 
CCOc1ccccc1OCCCC(=O)Nc1ccc(OC)nc1 |  | inactive: -0.284%
CC1=C(C(=O)Nc2ccc([N+](=O)[O-])cc2)C(c2cccc(C(F)(F)F)c2)NC(=S)N1c1ccccc1 (configuration not stated) |  | inactive: -7.73%
Cc1ccc(OCCn2cc(C(=O)C3CCCCC3)c3ccccc32)cc1 |  | inactive: -10.3%
COc1ccc(CN(C(=S)Nc2ccccc2)C2CC(=O)N(c3ccccc3)C2=O)cc1 (configuration not stated) | inconclusive [inhibitor, partial curve] | 
O=C(Nc1ccccc1)Nc1nnc(/C=C/c2ccccc2Cl)s1 | inconclusive [inhibitor, full curve] | 
Cc1ccc(NC(=O)CN2C(=O)N/C(=C/c3ccc(N4CCOCC4)cc3)C2=O)cc1 | inconclusive [activator, single point] | 
COc1ccc(C(=O)Nc2cc(-c3cccc(C)c3)nn2-c2ccccc2)cc1 | inconclusive [inhibitor, full curve] | 
Cc1ccc(-c2cn3c(n2)sc2cc(C(=O)NCCCN4CCCCC4)ccc23)cc1 |  | inactive: 1.6%
COC(=O)C1C2C=CC(C3CC23)C1C(=O)OCC(=O)c1ccc(OC)cc1 (configuration not stated) |  | inactive: -3.63%
Cc1oc(C(C)(C)C)cc1C(=O)NCc1ccc2c(c1)OCO2 |  | inactive: -2.95%
CCOc1ccc(S(=O)(=O)N(C)c2ccc(OCC(=O)Nc3nc4ccccc4s3)cc2)cc1 | inconclusive [inhibitor, partial curve] | 
OCCN(Cc1ccccc1)Cc1cccc(Cl)c1Cl |  | inactive: -6.94%
Cc1ccc(NC(=O)COC(=O)/C=C/c2cccc(Cl)c2)cc1S(=O)(=O)N1CCOCC1 | inconclusive [inhibitor, single point] | 
CCOC(=O)c1c(C)oc2nc(C)nc(N3CCN(c4ccc(C(C)=O)cc4)CC3)c12 |  | inactive: 0.978%
O=C(Cc1ccc(F)cc1)NCC1CCCO1 (configuration not stated) |  | inactive: -9.47%
Cc1cc(NC(=O)Cn2c(=O)nc(-c3ccccc3F)c3cc(Cl)ccc32)ccc1Br |  | inactive: -16.2%
CCOC(=O)c1ccc(NC(=O)c2c(NCc3cccs3)sc3c2CCCCC3)cc1 | inconclusive [inhibitor, partial curve, poor fit] | 
O=S(=O)(NCc1nc2cccnc2n1Cc1ccc(F)cc1)c1ccc2c(c1)CCCC2 | inconclusive [inhibitor, partial curve, poor fit] | 
COc1ccnc(CSC(N)=Nc2cccc(C(F)(F)F)c2)c1 | inconclusive [inhibitor, single point] | 
Cc1ccc(Cl)cc1NC(=O)COC(=O)c1ccc(COc2ccc3c(C)cc(=O)oc3c2)cc1 |  | inactive: -1.01%
CCOc1ccc(NC(=O)c2cc3c(-c4ccccc4F)nn(C)c3s2)cc1 | inconclusive [inhibitor, single point] | 

SMILES | Potency | activity, negative = inhibition
Nc1ccccc1Oc1c(F)c(F)c(Oc2ccccc2N)c(F)c1F | inconclusive [activator, single point] | 
O=C(NCCn1cc(SCc2ccc(F)cc2)c2ccccc21)c1c(F)cccc1F | inactive | 
Cc1ccc(Cn2c(C(=O)Nc3cccc(Cl)c3)cc3sccc32)cc1 | inconclusive [inhibitor, partial curve] | 
Cn1nnnc1SCCNCc1ccccc1OCc1ccccc1F |  | inactive: -4.01%
CSc1ncc(Cl)c(C(=O)Nc2ccc(S(=O)(=O)N3CCC(C)CC3)cc2)n1 | inconclusive [inhibitor, partial curve] | 
CCN1C(=O)c2cccc3c(NC(=O)c4ccc(S(=O)(=O)N5CCOCC5)cc4)ccc1c23 | inconclusive [inhibitor, single point] | 
Oc1ccc2c(c1)OCC1(O)Cc3cc(O)c(O)cc3C21 (configuration not stated) | inconclusive [activator, single point] | 
C=C1OC(CO)(n2cnc3c(N)ncnc32)C(O)C1O (configuration not stated) |  | inactive: -4.25%
COC(=O)c1ccc(NS(=O)(=O)c2ccc(-n3cccn3)cc2)cc1 | inconclusive [inhibitor, single point] | 
COc1cc(NC(=O)c2cc(-c3cccnc3)nc3ccc(Br)cc23)cc(OC)c1 | inconclusive [inhibitor, partial curve] | 
CC(=O)C1=C(O)C(=O)N(CCc2c[nH]c3ccccc23)C1c1ccccc1 (configuration not stated) | inconclusive [inhibitor, full curve, poor fit] | 
COc1ccc2c(c1)CC(NC(=O)Nc1cc(Cl)ccc1OC)CO2 (configuration not stated) | inconclusive [inhibitor, full curve, poor fit] | 
CCOC(=O)CSc1n[nH]c(NC(=O)CC)n1 | inconclusive [inhibitor, single point] | 
COc1cccc(C(=O)Nc2ccc(Cl)c(-c3nc4ccccc4[nH]3)c2)c1 | active: 25.1 µM | 
CCN(CC)CCCNC(=O)C1CCCN(c2nnc(N3CCCC3=O)s2)C1 (configuration not stated) | inconclusive [inhibitor, single point] | 
O=S1(=O)CCN(Cc2ccccc2C(F)(F)F)CC1 |  | inactive: -3.64%
COc1cccc(-c2nc(NCc3cnc(C)cn3)c3ccccc3n2)c1 | inconclusive [inhibitor, single point] | 
Cc1ccc(-n2ncc3c(NCCCN4CCOCC4)ncnc32)cc1Cl | inconclusive [inhibitor, single point] | 
Cc1ccsc1/C=N\NC(=O)c1n[nH]c2c1CCC2 |  | inactive: -2.14%
C=CCNC(=S)Nc1c(C(=O)OC)[nH]c2cc(OC)ccc12 | inconclusive [inhibitor, single point] | 
COc1ccc(N2CCN(C(c3ccccc3)c3sc4nc(C)nn4c3O)CC2)cc1 (configuration not stated) |  | inactive: 4.79%
Cc1ccccc1NN=Nc1nc2c([nH]1)c(=O)n(C)c(=O)n2C |  | inactive: -9.67%
S=C(Nc1ccc(Cl)c(Cl)c1)NC1CCCCC1 | inconclusive [inhibitor, partial curve] | 
CC(C)(O)C1CC[C@@]2(C)C3CCC4[C@@]5(C)CCCC(C)(C)C5C(O)C[C@]4(C)[C@]3(C)CC[C@@H]12 (some centres not stated) |  | inactive: 10.5%
